PubChem BioAssay AID540317 (National Center for Advancing Translational Sciences (NCATS), 2011)
The whole screen tested about 390,000 compounds, of which about 2,200 (0.56%) were called active. Inconclusive results, whose numbers are uncertain, are shown with a selection of clear calls. The call rests on the fitted dose curve; in most records, active means well fitted inhibition curve with a large enough effect; inconclusive means small, poorly fitted or top-dose-only effect; inactive means no such curve, though single readings can be large or run the other way. Potencies of inconclusive entries are doubtful fits and often do not repeat.
Further: nearly all actives have a fitted effect of over 70% in size.
Potency means the concentration at half of the fitted maximal effect; tags describe the fitted curve by direction and shape.

These compounds were tested against Chromobox protein homolog 1 (Homo sapiens) (UniProt P83916) (assay: HTS for Inhibitors of HP1-beta Chromodomain Interactions with Methylated Histone Tails). Details: AlphaScreen HP1-beta / biotin-H3K9me3 peptide binding; series mostly up to 114 µM.
UniProt P83916, sequence (P83916 whole entry, looked up, the tested form may be a part): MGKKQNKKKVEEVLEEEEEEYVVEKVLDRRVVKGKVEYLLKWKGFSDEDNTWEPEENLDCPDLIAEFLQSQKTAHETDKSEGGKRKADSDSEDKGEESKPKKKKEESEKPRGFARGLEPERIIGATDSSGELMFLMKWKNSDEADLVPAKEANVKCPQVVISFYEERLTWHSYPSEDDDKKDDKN
Text: As our understanding of epigenetics expands, it is becoming clear that players in this field are potential targets for drug development. This area of epigenetic therapy has established applications for the treatment of cancer and neurological diseases. We have been involved in this field for a number of years and have performed high-throughput screens to identify the first small molecule inhibitors of protein methyltransferases. These methyltransferases target multiple substrates, and thus regulate many arms of an epigenetic pathway. The methylation of different substrates often generates docking sites for effector proteins that harbor binding domains (chromo, tudor, PHD, MBT and ANK repeats). It has been proposed that the binding sites generated for different proteins by these post-translational modifcations mediate downstream effects on chromatin. Consistent with this theory, di- and tri-methylation of histone H3K9 facilitates the binding of heterochromatin protein HP1. The HP1 protein harbors a chromodomain that is responsible for the methyl-dependent interaction between HP1 and lysine 9 of histone H3. HP1 was first described in flies as a heterochromatin associated protein that can regulate gene silencing. It harbors a chromodomain that binds H3K9me3. In addition, it harbors a chromoshadow domain that interacts with a large number of proteins that are involved in heterochromatin formation and gene repression. There are three highly related HP1 isoforms. All three variants are associated with pericentric heterochromatin and it is not clear whether they have specific or redundant functions. MPP8 is also involved in the repression of gene in euchromatic regions (unpublished data) and like HP1 its chromodomain binds H3K9me3. MPP8 harbors an ankyrin repeat region that is likely involved in binding and recruiting interacting proteins with transcriptional repressive function, much like the chromoshadow domain of HP1 does. We hypothesize that by inhibiting specific protein-protein interactions we will be able to develop compounds that block a single arm of an epigenetic pathway. The specificity attained by blocking a single protein-protein interaction will be far greater than that attained by blocking the enzyme that regulates one of many interactions. Low-affinity protein-protein interactions (Kd in the single- to double-digit micromolar range) such as those discussed here have been very difficult to assay by traditional techniques such as fluorescence polarization or fluorescence resonance energy transfer. We have developed a sensitive chemiluminescence-based assay (Quinn, et al. 2009), which serves as the starting point for this project. The following is a validation assay to identify lead compounds that can block methyl-dependent protein-protein interactions (specifically HP1-beta), which can be used as probes to analyze these methyl-driven interactions and perhaps even developed into targeted epigenetic therapies. NIH Chemical Genomics Center [NCGC] NIH Molecular Libraries Probe Centers Network [MLPCN] MLPCN Grant: DA031087 Assay Submitter (PI): Mark Bedford, University of Texas, Medical Anderson Cancer Center, TX
To each well, 2 uL of HP1-beta protein (final 50 nM) and 1 uL biotinylated histone peptide trimethylated at Lys9 [b-H3(1-18)K9me3] (final 50 nM) was added in 1x PBS buffer, pH 7.4, containing 0.01% Tween-20 using a nanoliter dispenser. Formation of a protein-peptide complex proceeded at room temperature for 30 min. A Kalypsys pin-tool was employed to transfer 23 nL of library compound solution in DMSO to each well. Aurintricarboxylic acid (ATA) was used as an intraplate control with a 12-point titration in duplicate. Following a 30 min incubation of the protein-peptide complex with compounds at room temperature, a mixture of 40 ug/mL each streptavidin-coated donor and nickel chelate acceptor AlphaScreen beads (final 10 ug/mL) was added in a 1 uL dispense for a final volume of 4 uL. […]
In the case of `O=C(COC(=O)C1CC(=O)N(Cc2ccco2)C1)c1ccc(OC(=O)c2ccco2)cc1` (centres undefined), the Potency is reported as inconclusive: 63.1 µM [inhibitor, single point].
With `OCC[C@H]1C[C@@H](O)[C@H](O)[C@]2(OCc3ccccc32)O1` the Potency was “inactive”.
`O=C(O)CC/C(=C\c1ccc(N2CCCC2)c([N+](=O)[O-])c1)c1nc2ccccc2s1` was tested, and the Potency was inconclusive: 56.2 µM [inhibitor, single point].
For `O=[N+]([O-])c1c(Nc2ccccc2O)ccc2nonc12`, the Potency was inconclusive: 70.8 µM [inhibitor, partial curve, poor fit].
In the case of `COc1ccc(N2C(=O)/C(=C/N(C)C)NC2=S)cc1`, the Potency is reported as inconclusive: 89.1 µM [inhibitor, single point].
`CCCOc1ccc(C(=O)Nc2ccc(Cl)c(-c3nc4ncccc4o3)c2)cc1` was tested, and the Potency was “inactive”.
For `COC(=O)CCCC1=CC2=C(c3ccccc3)C(=O)C(C)(OC(=O)C3CCCC3)C(=O)C2=CN1Cc1ccc(OC)cc1` (centres undefined), the Potency was inconclusive: 25.1 µM [inhibitor, partial curve, poor fit].
For `Cc1ccc2c(CN3CCCCC3)cc(=O)oc2c1C`, the Potency was “inactive”.
With `Cc1cc(Nc2ccccc2)c2c([N+](=O)[O-])c(C)cc(C)c2n1` the Potency was active: 39.8 µM.
In the case of `Cc1ccc(/C=C/C(=O)N2CCN(S(=O)(=O)c3ccc(C)c(C)c3)CC2)o1`, the Potency is reported as inconclusive: 25.1 µM [inhibitor, full curve, poor fit].
In the case of `CSc1nc2c(c(=O)[nH]c(=O)n2C)n1Cc1ccc(Cl)cc1`, the Potency is reported as inconclusive: 15.8 µM [inhibitor, partial curve].
For `CCN(CC)C(=O)CN1CCN(c2ncccn2)CC1`, the Potency was inconclusive: 14.1 µM [inhibitor, full curve, poor fit].
In the case of `COc1ccc(OC)c(CCNc2nc3ccccc3c3nc(-c4cccnc4)nn23)c1`, the Potency is reported as “inactive”.
For `Cc1nn(CCCC(=O)N2CCc3ccccc3C2)c(=O)c2cc3sccc3n12`, the Potency was “inactive”.
With `COc1ccc(NS(=O)(=O)c2ccc3oc(SC)nc3c2)cc1` the Potency was inconclusive: 28.2 µM [inhibitor, partial curve].
With `COc1ccc(NC(=S)NC(=O)c2ccc3c(c2)OCCO3)cc1` the Potency was inconclusive: 28.2 µM [inhibitor, single point].
For `Cc1cccc(C(=O)c2c[nH]cc2-c2ccccc2)c1`, the Potency was inconclusive: 28.2 µM [inhibitor, partial curve].
With `CCc1ccc(OCC2c3cc(OC)c(OC)cc3CCN2C(=O)COc2ccccc2)cc1` (centres undefined) the Potency was “inactive”.
With `CCCCOc1ccc(N(CC(=O)NCC2CCCO2)C(=O)CCC(=O)Nc2cc(C)ccn2)cc1` (centres undefined) the Potency was inconclusive: 39.8 µM [inhibitor, single point].
With `CCOc1ccc(NC2CCCCC2NS(=O)(=O)c2ccccc2)cc1` (centres undefined) the Potency was inconclusive: 56.2 µM [inhibitor, partial curve, poor fit].
In the case of `COc1ccc(N2CC(=O)N(c3ccc(OC)c(OC)c3)CC2=O)cc1OC`, the Potency is reported as “inactive”.
With `Cc1cc2cc(CNC(=O)Nc3ccccc3)ccc2n1C` the Potency was inconclusive: 31.6 µM [inhibitor, partial curve, poor fit].
`COc1cc(C2CC(=O)Oc3c2c(=O)n(C)c2ccccc32)cc(OC)c1OC` (centres undefined) was tested, and the Potency was inconclusive: 31.6 µM [inhibitor, full curve].
With `N#CCSc1ccsc1C(=O)Nc1ccc(F)cc1` the Potency was inconclusive: 89.1 µM [inhibitor, partial curve, poor fit].
In the case of `CC(C)(C)C1CCC(C(=O)Nc2ccc(N3CCOCC3)cc2N2CCOCC2)CC1` (centres undefined), the Potency is reported as inconclusive: 31.6 µM [inhibitor, partial curve, poor fit].
For `O=C(N/N=C/c1c(O)n(Cc2ccco2)c(=O)[nH]c1=O)c1ccccc1`, the Potency was “inactive”.
`CCCCOC(=O)c1ccc(NC(=O)c2nn(C)cc2Br)cc1` was tested, and the Potency was “inactive”.
In the case of `S=C1CCC(c2ccc(Cl)cc2)=NN1c1ccccc1`, the Potency is reported as inconclusive: 20 µM [inhibitor, partial curve, poor fit].
For `CSCCC(NC(=O)c1ccccc1)C(=O)Nc1ccncc1` (centres undefined), the Potency was inconclusive: 89.1 µM [inhibitor, single point].
For `COc1cc(CN2CCN(S(=O)(=O)c3ccccc3)CC2)cc(OC)c1O`, the Potency was “inactive”.
For `CNc1ccc(Br)cc(C(=O)/C=C/c2ccc(Cl)cc2Cl)c1=O`, the Potency was inconclusive: 31.6 µM [inhibitor, partial curve].
For `O=C(CNS(=O)(=O)c1cccs1)N1CCN(c2cccc(C(F)(F)F)c2)CC1`, the Potency was “inactive”.
For `COc1cc(-c2ccc(Nc3ccccc3C(=O)O)c(OC)c2)ccc1Nc1ccccc1C(=O)O`, the Potency was active: 35.5 µM.
`Fc1ccc(C2CCNCC2COc2ccc3c(c2)OCO3)cc1` (centres undefined) was tested, and the Potency was inconclusive: 39.8 µM [inhibitor, partial curve].
With `COc1ccc(N2CCN(C(=O)CCSCc3ccccc3F)CC2)cc1` the Potency was inconclusive: 35.5 µM [inhibitor, partial curve].
`CCN(CC)c1nc(N)c2c(N)n(-c3ccccc3C)c(=S)c(C#N)c2c1C#N` was tested, and the Potency was inconclusive: 39.8 µM [inhibitor, single point].
For `CCOc1ccc(CN2CCN(Cc3c[nH]c4ccccc34)CC2)cc1`, the Potency was inconclusive: 31.6 µM [inhibitor, partial curve].
For `Cc1cccc(N2CCN(C(=O)CCCCn3c(=O)[nH]c4ccsc4c3=O)CC2)c1C`, the Potency was “inactive”.
`Cn1c(=O)n(C/C=C/c2ccccc2)c(=O)c2c1nc1n2CCCN1Cc1ccccc1` was tested, and the Potency was inconclusive: 28.2 µM [inhibitor, single point].
`COC(=O)c1ccc(N(C(=O)CNC(=O)c2ccco2)C(C(=O)NC2CCCC2)c2ccco2)cc1` (centres undefined) was tested, and the Potency was “inactive”.
In the case of `CCN(CC)S(=O)(=O)c1ccc2oc(C(=O)N(C)Cc3ccccc3)c(C)c2c1`, the Potency is reported as “inactive”.
With `Cc1noc(C)c1NC(=O)Nc1cccc2c1O[C@H](CN(C)C(=O)Nc1ccc(C(F)(F)F)cc1)[C@@H](C)CN([C@H](C)CO)C2=O` the Potency was “inactive”.
With `COCCCNCC(O)COc1ccccc1F` (centres undefined) the Potency was inconclusive: 63.1 µM [inhibitor, single point].
In the case of `COc1cc2nc(NC(=O)c3ccc(Cl)cc3)sc(=O)c2cc1OC`, the Potency is reported as inconclusive: 39.8 µM [inhibitor, partial curve].
